Results: a compilation of properties of binary mixtures (doi:10.2298/jsc160317058s)
Some of these densities may be calculated back from excess volumes.

Assay: xn = mol fraction of the nth substance listed
Details: 100 kPa

CCCC[n+]1ccn(C)c1.O=S(=O)([O-])C(F)(F)F + Nc1ccccc1
mass density [kg/m3]
Details	288.15 K	293.15 K	298.15 K	303.15 K	308.15 K	313.15 K	318.15 K	323.15 K	328.15 K	333.15 K
x2 = 0	–	1303.1	1299.1	1295.1	1291.1	1287.2	1283.3	1279.4	1275.5	1271.7
x2 = 0.1	1295.2	1291.2	1287.2	1283.2	1279.3	1275.4	1271.4	1267.5	1263.7	1259.8
x2 = 0.1995	1283.2	1279.2	–	1271.3	1267.4	1263.5	1259.6	1255.7	1251.8	–
x2 = 0.3002	–	–	1261.3	–	1253.4	1249.5	1245.6	–	1237.9	1234
x2 = 0.3996	–	–	–	–	–	–	–	1225.3	1221.4	1217.6
x2 = 0.8999	1092.4	1088.3	1084.2	1080.1	1076	1072	1067.9	–	–	1055.6

CN(C)c1ccccc1 + CCCC[n+]1ccn(C)c1.O=S(=O)([O-])C(F)(F)F
mass density [kg/m3]
Details	288.15 K	293.15 K	298.15 K	303.15 K	308.15 K	313.15 K	318.15 K	323.15 K	328.15 K	333.15 K
x1 = 0.02	–	–	–	1287.9	–	–	–	–	–	–
x1 = 0.0501	–	–	–	1281.1	–	–	–	–	–	–
x1 = 0.1	1278.8	1274.7	1270.6	1266.6	1262.5	1258.5	–	1250.4	–	–
x1 = 0.1402	–	–	–	1259.8	–	–	–	–	–	–
x1 = 0.18	–	–	–	1253.5	–	–	–	–	–	–
x1 = 0.2	1259.8	1255.8	1251.8	1247.7	–	–	1235.7	1231.8	1227.8	1223.8
x1 = 0.2998	–	1236.8	1232.7	1228.7	1224.8	1220.8	1216.9	1212.9	1209	1205.1
x1 = 0.397	–	1214.3	–	1206.3	1202.3	1198.3	1194.4	1190.5	1186.6	1182.7
x1 = 0.5045	1188	1183.9	1179.9	1175.9	1171.9	1167.9	1163.9	1160	1156	–
x1 = 0.5996	1156.5	1152.5	1148.4	1144.4	1140.3	1136.3	1132.3	1128.3	1124.4	1120.4
x1 = 0.6997	–	1114.4	1110.4	1106.3	1102.2	–	–	1090.1	1086.1	1082.1
x1 = 0.7994	1074.4	1070.3	1066.2	1062.1	1058	1053.9	1049.9	1045.8	1041.8	1037.7
x1 = 0.8945	1024.8	1020.7	–	1012.4	1008.3	1004.2	–	996	–	–
x1 = 1	–	–	952.3	948.2	944.1	940	935.9	–	927.7	923.5

Nc1ccccc1 + CCCC[n+]1ccn(C)c1.O=S(=O)([O-])C(F)(F)F
x1 = 1
Details	mass density [kg/m3]
288.15 K	1026.1
293.15 K	1021.7
298.15 K	1017.4
303.15 K	1013
308.15 K	1008.7
313.15 K	1004.4
318.15 K	1000
328.15 K	991.4
333.15 K	987

CCCC[n+]1ccn(C)c1.O=S(=O)([O-])C(F)(F)F + CN(C)c1ccccc1
x2 = 0
Details	mass density [kg/m3]
288.15 K	1307
293.15 K	1303.1
298.15 K	1299.1
303.15 K	1295.1
313.15 K	1287.2
318.15 K	1283.3
323.15 K	1279.4
328.15 K	1275.5
333.15 K	1271.7
